Among all 43,000 compounds or so, about 200 (0.47%) were called active. Roughly 12% stayed inconclusive and do not appear here. Calls come from the whole dose curve; as a rule, active = well fitted cell-killing curve with a large enough effect; inconclusive = small, poorly fitted or top-dose-only effect, or effect the other way; inactive = flat fitted curve, though single readings scatter. Some of the results follow.
% is set by controls: 0 for no effect and ±100 for the full control effect.

The nature of this experiment: Cell viability qHTS assay in S16 Pmp22-F2sN cells. Note: nearly all actives have a fitted effect of over 65% in size. The note with it: S16 Pmp22-F2sN Schwann cells (luciferase reporters placed in the Pmp22 gene) viability, CellTiter-Glo, 24 h; series mostly up to 57.5 µM; activity change, negative = cytotoxicity: at the top concentration. The text has this: Assay Provider: Jim Inglese Ph.D. National Center for Advancing Translational Science, National Institutes of Health, Rockville, MD CMT is a heterogeneous group of neurological disorders that affect approximately 1 in 2,500 people. In particular, the most common form of CMT, CMT1A is genetically linked to the duplication of the PMP22 gene which leads to Schwann cell overexpression, thus manifesting itself as a typical case of dose-sensitive diseases. To identify small molecule compounds that can mediate the expression of PMP22 we developed a phenotypic assay screening strategy by utilizing genome editing techniques to construct Schwann cell lines containing novel reporter technology to monitor the transcriptional or translational regulation of PMP22. For high sensitivity we use a bioluminescent reporter system embedded in the 3' UTR of the PMP22 gene (S16(c9) Pmp22-F2sN) to identify compounds that inhibit gene expression. […] We can further discriminate the effect of all transcriptionally active molecules on PMP22 translation or stability with an assay that incorporates a short NLuc peptide (HiBiT) at the C-terminus of expressed PMP22 (S16(f8) PMP22-HiBiT) allowing alpha complementation and luminescence detection of membrane-associated PMP22 protein. These assays were screened against the NCATS Sytravon Library Collection. Miniaturization of these assays to 1536-well plate format for quantitative high throughput screening (qHTS) yielded rich data sets immediately from the qHTS assay (S16(c9) Pmp22-F2sN), when compared with data from a cell viability assay (Cell TiterGlo) to identify compounds that decreased the output signals through cellular toxicity to streamline the selection process of actives for subsequent characterization using the HiBiT assay (S16(f8) PMP22-HiBiT).
Cell viability assay in S16 Pmp22-F2sN cells PROTOCOL TABLE (format as described by Inglese J, Shamu CE and Guy RK. 2007) SEQUENCE No. (e.g., 1, 2, 3, etc.); […] (e.g., Cells, Incubation, Reagent, etc.); VALUE and DESCRIPTION. 1. Cells. Add 500-1,000 cells in 4 uL in growth media (DMEM High Glucose, No Phenol Red media + 10% heat-inactivated FBS + 1% Pen/Strep supplemented media) per well into Greiner 1536-well white/solid bottom high base, TC-treated plates. 2. Compounds. Library compounds and controls added at 23nL per well, transferred by Pin Tool. 3. Incubation. Incubate plates at 37C, 5% CO2, 95% RH for 24 h. 4. Reagent. Add 3uL CellTiter-Glo per well of Greiner 1536-well plates. 5. Incubation. Incubate plates at room temperature for 15 min., protect from light. 6. Detector. FLuc luminescence measured using CCD-based camera (Viewlux). NOTES (numbers refer to Sequence numbers above; values are from representative experiments) 6. Luminescence Read: Clear filter; Exposure = 1 sec, Gain = High, Speed = Slow, Binning = 2X REFERENCES: 1. Inglese J, Shamu CE and Guy RK, Reporting data from high throughput screening of small molecule libraries, Nature Chemical Biology, 2007, 3(8): 438-441. doi.org/10.1038/nchembio0807-438 2. Yasgar A, Shinn P, Jadhav A, Auld DS, Michael S, Zheng W, Austin CP, Inglese J and Simeonov A, Compound Management for Quantitative High-Throughput Screening. J. Assoc. Lab. Auto., 2008, 13: 79-89. doi: 10.1016/j.jala.2007.12.004
(In general: Quantitative high-throughput screening tests each substance at several concentrations.)
With `COc1ccc(C(=O)Nc2nonc2-c2ccc(OC)c(OC)c2)cc1Cl`, the “activity change, negative = cytotoxicity” value was inactive: -29.7%.
Take `COc1ccc(-c2nnc(SCC(=O)Oc3cc(C)ccc3C)o2)cc1`: the “activity change, negative = cytotoxicity” value was inactive: 2.61%.
For `CCOC(=O)c1cc2c(=O)n3ccccc3nc2n(CC2CCCO2)c1=NC(=O)c1ccc(F)cc1` (stereo not given), the “activity change, negative = cytotoxicity” value was inactive: 2.24%.
Next, `CCc1cccc(NC(=O)Cn2nc(C)c3sc4ccccc4c3c2=O)c1`: inactive: -3.99%; `COc1ccccc1OC(C)C(=O)N1CCC(c2nc3ccccc3s2)CC1` (stereo not given): inactive: -18.7%; `COc1ccc(Cn2c(=O)c3ccccc3n3c(-c4ccc(C)cc4)nnc23)cc1`: inactive: 1.5%.
Regarding `COc1ccc(Cn2c(C(=O)O)c(CNCc3ccc(C)o3)c3ccc(OC)cc32)cc1`, the “activity change, negative = cytotoxicity” value is inactive: -26%.
Next, `Cc1ccc(C)c(NC(=O)Cn2cc(S(=O)(=O)NC(C)C)c(S(=O)(=O)NC(C)C)c2)c1`: inactive: -12.4%.
Next, `Cc1ccc(OCc2cc(=O)n3cc(C)sc3n2)c(NC(=O)c2ccco2)c1`: inactive: -5.36%; `COc1ccc(NC(=O)C(C)N2Cc3ccccc3C2=O)cc1OC` (stereo not given): inactive: 1.67%; `Cc1ccc2c(c1)-c1c(cnc3cc(-c4ccc(Cl)cc4)nn13)CO2`: inactive: -1.64%.
Next, `Cc1ccc2onc(CNC(=O)N3CCN(c4cc(Cl)ccc4C)CC3)c2c1`: inactive: -5.29%; `Cc1ccc(CCNC(=O)c2sc3nc4n(c(=O)c3c2C)CCCC4)cc1`: inactive: -1.33%.
On to `COc1ccccc1CNC(=O)c1ccc2c(c1)nc(C)n2-c1cccc(C)c1`, for which the “activity change, negative = cytotoxicity” value was inactive: -4.77%.
On to `CC(C)OC(=O)c1ccc(NC(=O)CSc2nc(-c3cccs3)cc(C(F)(F)F)n2)cc1`, for which the “activity change, negative = cytotoxicity” value was inactive: 9.87%.
For `Cc1ccc(COC(=O)c2[nH]c3c(c2C)C(=O)CC(c2ccc(Cl)cc2)C3)cc1` (stereo not given) the value was inactive: -5.48%.
Consider `CC(C)CC(=O)n1nc(-c2ccco2)nc1NCc1ccc(Cl)cc1`, for which the “activity change, negative = cytotoxicity” value was inactive: 10.1%.
For `Cc1ccc2c(c1)c(=O)c1ccccc1n2CCCC(=O)Nc1ccc(C)c(C)c1` the value was inactive: -3.84%; for `Cc1cccc(CN2C(=O)c3ccccc3S(=O)(=O)c3ccc(C(=O)OCC4CCCO4)cc32)c1` (stereo not given), inactive: 14.7%; for `CCc1ccc(CNC(=O)C2COc3ccccc3C2)cc1` (stereo not given), inactive: 12.3%.
For `COc1cc(NS(=O)(=O)c2cc3[nH]c(=O)[nH]c3cc2C)cc(OC)c1OC` the value was inactive: 10.4%; for `CCOC(=O)c1cc(S(=O)(=O)N2CCN(c3ccccc3OC)CC2)[nH]n1`, inactive: -14.9%.
Next, `Cc1ccc(N2CC(NC(=O)C3CCCCC3)CC2=O)cc1` (stereo not given): inactive: 2.63%; `COc1ccc(NC(=O)CSCc2cc(=O)c3cc(Cl)ccc3[nH]2)cc1`: inactive: 6.68%.
Turning to `CCn1c(CNC(=O)c2ccc(OC)cc2)nnc1SCC(=O)Nc1ccc(F)cc1`, the “activity change, negative = cytotoxicity” value was inactive: 14%.
Turning to `CCc1ccc(C(=O)c2cn(CC(=O)Nc3ccc(F)cc3)c3ccc(F)cc3c2=O)cc1`, the “activity change, negative = cytotoxicity” value is inactive: 0.158%.
`CCOc1ccc(C2CC(=O)Nc3c2c(=O)[nH]c2ncnn32)cc1` (stereo not given): the “activity change, negative = cytotoxicity” value was inactive: -0.11%.
Next, `Cc1cccc(C(=O)Nc2cc(-c3ccccc3F)nn2-c2ccccc2)c1`: inactive: -20.1%; `COc1cccc(-c2nc(CS(=O)(=O)CC(=O)Nc3ccc(C)c(Cl)c3)c(C)o2)c1`: inactive: -3.3%; `COc1ccc(CCNC(=O)Cc2ccc(NC(=O)N3CCSc4ncccc43)cc2)cc1OC`: inactive: 5.4%.
With `Cc1cccc(NC(=O)c2cc3c([nH]c2=O)CC(c2ccccc2)CC3=O)c1` (stereo not given), the “activity change, negative = cytotoxicity” value is inactive: 1.99%.
Next, `O=C(Cn1c(=O)n(Cc2ccc(F)cc2)c(=O)c2sc3ccccc3c21)Nc1ccc(F)cc1F`: inactive: 0.029%; `COc1cc(C(=O)NCc2nc(-c3ccc(Cl)cc3)no2)cc(OC)c1OC`: inactive: 11.6%; `COC(=O)CCNC(=O)N1CCN(c2nnc(C)c3c(C)n(-c4ccccc4)nc23)CC1`: inactive: 1.28%.
For `COc1cccc(CNC(=O)Cn2cccc2C(=O)c2ccccc2)c1` the value was inactive: 12%.
For `COc1ccc(C(=O)N2CCN(c3nc4c(OC)cccc4s3)CC2)cc1OC`, the “activity change, negative = cytotoxicity” value is inactive: -27.1%.
Next, `CCCn1c(=N)c(C(=O)NC2CCCCC2)cc2c(=O)n3cc(C)ccc3nc21`: inactive: 13.2%; `CCOC(=O)c1cc(-c2ccccc2)n(-c2cccc(C(=O)NC(C)(C)C)c2)c1C`: inactive: -28.8%.
Next, `CCOc1ccc(S(=O)(=O)NCc2cccn2Cc2cccc(C)c2)cc1`: inactive: 5.45%; `CC(C)COc1ccc(C(=O)N(Cc2cccc(F)c2)C2CCS(=O)(=O)C2)cc1` (stereo not given): inactive: 6.05%; `CCOC(=O)c1cnc2ccc(OCC)cc2c1NCCc1ccc(OC)c(OC)c1`: inactive: 12.8%.
`CCN1CCc2c(sc(-n3cccc3)c2C(CCC(C)C)NC(=O)NCCC(=O)OC)C1` (stereo not given): the “activity change, negative = cytotoxicity” value was inactive: 20.8%.
For the compound `CCc1cccc(C)c1NC(=O)C(NS(=O)(=O)c1ccc2c(c1)CCC(=O)N2)c1ccccc1` (stereo not given), the “activity change, negative = cytotoxicity” value is inactive: -3.28%.
Next, `CCCn1c2ccccc2c2cnn(CC(=O)NCCCOC(C)C)c(=O)c21`: inactive: 11.2%; `O=C(Nc1ccc(F)cc1)Nc1nnc(SCC(=O)N2CCCCC2)s1`: inactive: -17.3%.
Consider `Cc1cccc(CNC(=O)CN2CC(C)Sc3ccccc32)c1` (stereo not given), for which the “activity change, negative = cytotoxicity” value was inactive: 8.32%.
`CC(=O)Nc1ccc(NC(=O)CN2C(=O)CCc3cc(S(=O)(=O)N4CCCCC4)ccc32)cc1`: the “activity change, negative = cytotoxicity” value was inactive: -14.4%.
For `COc1ccc(C)cc1NS(=O)(=O)c1cc(Br)cc2c1N(C(C)=O)C(C)C2` (stereo not given), the “activity change, negative = cytotoxicity” value is inactive: 6.35%.
On to `Cc1c(C(=O)N(Cc2cccc(Cl)c2)Cc2ccco2)oc2ccccc12`, for which the “activity change, negative = cytotoxicity” value is inactive: 5.57%.
As to `Cc1c(Cl)cccc1-n1nnc(-c2nc(-c3ccc4c(c3)OCO4)no2)c1C`, the “activity change, negative = cytotoxicity” value was inactive: -0.549%.
